Source: paper PMC10668032
This is one part of the list. At the low end of the ranking the order means little.

Biological target: SIX1-Q177R homeodomain (UniProt Q15475)
Assay: universal protein binding microarray
Conditions: Universal all-10-mer PBM (8x60K, AMADID 030236), 300 nM GST-tagged protein, Alexa Fluor 488 anti-GST; buffer, salt, pH and temperature not stated; high values mean tight binding; most listed sequences are background and not binding sites; double strand, one strand shown

Sequence | binding signal
ACGAGGAG | -0.0338 E-score
ACTTACTC | 0.179 E-score
AGGAGGTA | 0.0817 E-score
TCAGTAAA | -0.181 E-score
CCCCAGAG | 0.018 E-score
GACTTCGC | -0.165 E-score
AGAATGGA | -0.116 E-score
ATCAGACC | -0.158 E-score
ACTGCGCA | -0.129 E-score
CCTACATC | -0.174 E-score
ACTCGGTG | 0.368 E-score
CAGCGTGC | -0.00421 E-score
CGCGCGGC | 0.0441 E-score
CACGAACC | 0.111 E-score
ACAGCAAT | -0.0958 E-score
TCATGAGA | -0.13 E-score
ACATGTCA | -0.0451 E-score
AATAACAA | -0.316 E-score
ATACTCAC | 0.0173 E-score
AATCTAGG | -0.04 E-score
CCACACAG | 0.0766 E-score
GAATGCTC | -0.251 E-score
CTCCGAAA | -0.127 E-score
CAACTATG | -0.0873 E-score
GGTCATTA | 0.00064 E-score

Sequence | binding signal
ACGCCGCT | 0.0592 E-score
ATCTTCTG | -0.223 E-score
TCGTGACA | 0.329 E-score
GTACTTCA | -0.163 E-score
CGCGGTCA | -0.126 E-score
GGAATAAC | 0.0411 E-score
CCCGAACC | 0.198 E-score
CACATCCG | -0.00454 E-score
GAATCGGA | -0.157 E-score
GGTTAGTA | 0.124 E-score
ATAGTGTG | 0.188 E-score
TAAAACAA | -0.105 E-score
AACCGGCG | 0.114 E-score
AGAAGTAA | -0.25 E-score
ACATGCGG | -0.208 E-score
AATTATAC | 0.0534 E-score
TAATCACA | 0.213 E-score
ACCAAGAC | 0.11 E-score
ACAGGTCG | -0.0862 E-score
GGAGGGAC | -0.0924 E-score
CGAAATAG | -0.222 E-score
CCGGAAGC | -0.0228 E-score
CCCCCCGA | 0.314 E-score
CAGGCGAA | -0.124 E-score
ACGCTACT | 0.0585 E-score

Sequence | binding signal
AAGGAACG | -0.0739 E-score
GGTGAATA | -0.158 E-score
CGGTCTTA | -0.105 E-score
GATCCATA | 0.056 E-score
ATTCTCTA | -0.0866 E-score
TCGAATAA | -0.284 E-score
TGCCCCAA | -0.161 E-score
CCCTCAAC | 0.0359 E-score
CGCGGCCA | -0.0655 E-score
AGCTCGTA | -0.19 E-score
ACTAAACA | 0.0451 E-score
CTACGCGC | -0.115 E-score
ACCCAGCG | 0.168 E-score
ATTTATGG | -0.0409 E-score
ACGCGCCT | -0.101 E-score
ATAGTGGG | 0.0484 E-score
CGTGCGCC | 0.0513 E-score
GACGCACA | 0.0773 E-score
GTTGAGTA | 0.022 E-score
ACCTTGTG | 0.175 E-score
CCTAGGCC | -0.159 E-score
CGCCGTCA | -0.0897 E-score
AGTACGGG | -0.0753 E-score
AACATAAG | -0.158 E-score
ATAGGCCG | 0.0265 E-score

Sequence | binding signal
CCAAGCTA | -0.199 E-score
GCGACGGA | -0.0502 E-score
CCACAGGA | -0.0176 E-score
TAACGTAA | -0.0222 E-score
ATTTATAC | 0.0118 E-score
CCGTGGAG | -0.00471 E-score
ATCGGGAC | -0.00721 E-score
ACAGTTGA | -0.137 E-score
GACCGAGA | -0.0142 E-score
CACGGACA | 0.298 E-score
GAGCAGAA | -0.209 E-score
CACGTTTC | 0.0249 E-score
CGGATGTA | -0.0885 E-score
GCTCTTAA | -0.0787 E-score
TCTTCCAA | -0.0874 E-score
CCACTGCA | 0.0524 E-score
AGGCTCGC | -0.175 E-score
ATCGATTA | 0.164 E-score
ACTCCATC | 0.266 E-score
ATAGTTTA | -0.16 E-score
AAATGGTG | 0.289 E-score
AGTACGAT | -0.0183 E-score
AAGCTCCA | -0.14 E-score
CTTACACA | 0.231 E-score
GTAGCTAC | 0.0399 E-score

Sequence | binding signal
AGGTTCTA | -0.08 E-score
CGACGACG | -0.261 E-score
CGGTGCAC | 0.296 E-score
TACGGCTA | -0.0432 E-score
GCGTTTGA | -0.169 E-score
CGACCACC | 0.0861 E-score
GATAGCGA | -0.16 E-score
AATATCGA | -0.0911 E-score
CCCGGCGA | 0.117 E-score
TACAAGGA | -0.0504 E-score
ACCCTTCG | 0.142 E-score
ATTCATAA | -0.187 E-score
AGAGTACA | 0.186 E-score
AGTCAATG | -0.0982 E-score
CATAATTA | -0.0653 E-score
GACCGCCC | -0.176 E-score
AAAACCTC | -0.132 E-score
ATAAGGGG | 0.02 E-score
CTGCTTAC | -0.048 E-score
CCCTAGTA | 0.18 E-score
GGTCGGAC | 0.0312 E-score
CCGTAGCA | 0.0136 E-score
GGGGCTAC | -0.0569 E-score
GCGGCGAC | -0.0624 E-score
AAATCGTT | -0.114 E-score

Sequence | binding signal
ACGATGAC | -0.0343 E-score
TTGAACAA | -0.0106 E-score
CGAGGGCC | -0.0172 E-score
GGGAAAAA | -0.273 E-score
CTAATGAG | -0.168 E-score
AGACTCAT | -0.137 E-score
ACCCACAA | 0.151 E-score
CCTGCTGA | 0.0189 E-score
ATGCCTGA | -0.189 E-score
ACCTATGG | 0.106 E-score
ACTCCTGC | 0.158 E-score
AAAAACTG | -0.053 E-score
ATCAGGAG | 0.019 E-score
ACGCAACT | -0.013 E-score
CCGACACA | 0.295 E-score
AGCGGGTC | -0.0761 E-score
CCCATCAA | -0.129 E-score
AGGCCAAT | -0.341 E-score
ACTCAGGG | 0.162 E-score
ACCGCGTG | 0.246 E-score
GGTAGGTA | 0.0509 E-score
AATCCTCG | -0.23 E-score
CTTTCCCC | -0.104 E-score
ACCAAAAT | 0.158 E-score
GAAGATCA | -0.124 E-score

Sequence | binding signal
CCGGAACG | -0.0542 E-score
CGCCCGGC | 0.0667 E-score
CTCTTTCA | -0.0765 E-score
GAACGACA | 0.238 E-score
CATCGTGG | -0.107 E-score
GAGCGAGA | -0.0569 E-score
ATCTGTCA | -0.139 E-score
CATCCCTC | -0.0291 E-score
ACCGGCCC | 0.0711 E-score
CAAGAGCC | -0.234 E-score
TATCTCGA | -0.15 E-score
TACATTAA | 0.0361 E-score
CGGGCACG | -0.0183 E-score
AACCGATC | -0.0142 E-score
ACTCTAAT | 0.0905 E-score
TCGCGTCA | 0.118 E-score
GCTAGATA | 0.0333 E-score
AGGTAGAC | -0.00394 E-score
GCACGCCA | -0.0164 E-score
CTATACCC | 0.247 E-score
AGCTGTTC | -0.306 E-score
CGACGGTA | 0.0563 E-score
GGGTTTAC | 0.102 E-score
CTGCGTTA | -0.244 E-score
GCGAGCAA | -0.132 E-score

Sequence | binding signal
CATAGTCC | -0.183 E-score
CCCTATCA | -0.0311 E-score
CTCCCCAG | -0.0811 E-score
ACCTCCGG | 0.138 E-score
GACGCCGA | 0.174 E-score
AAGGTTAA | -0.0483 E-score
ACCTCCAC | 0.0541 E-score
GCGCCTCC | 0.0615 E-score
CGACGTCG | -0.113 E-score
GGTGACAA | 0.0258 E-score
GGTCATAC | -0.0718 E-score
AGCCACCC | 0.115 E-score
CATAGATC | -0.0634 E-score
ATAACTCA | -0.0271 E-score
CGCCCTAA | -0.0647 E-score
CCCTCTAA | -0.0704 E-score
CATTAACA | -0.0111 E-score
CACCGCTG | 0.249 E-score
GTTGCCGA | -0.0647 E-score
AAACCTGA | -0.0946 E-score
CAGTGATC | 0.0143 E-score
AGCGAAGG | -0.159 E-score
CTAGGTAA | 0.0305 E-score
ACTTACCG | 0.0486 E-score
ATTCCCTC | -0.0571 E-score

Sequence | binding signal
AGGATTGG | -0.142 E-score
GTAAACCA | 0.0669 E-score
TAATTGGA | -0.0806 E-score
AGAACCGA | -0.15 E-score
ACCGGCAG | 0.131 E-score
GAGGGTAC | 0.183 E-score
TCTATAGA | 0.00643 E-score
GGGTTCGA | 0.116 E-score
AGCGCGGC | -0.124 E-score
ATCTAGCC | -0.0661 E-score
ACCGTGTA | 0.438 E-score
ACAGGCAG | -0.0434 E-score
CCGGGCAG | 0.072 E-score
ACTTGGCT | -0.0747 E-score
TAATACGA | 0.0808 E-score
CGGGGTAC | 0.224 E-score
GGACGTCA | -0.183 E-score
CCCTGTAA | 0.0288 E-score
GTTATGAA | 0.0689 E-score
